In all, about 33,000 sequences were measured (“E-score (-0.5 to 0.5)”: median about -0.01, highest 2% from about 0.26 on). Some of the results follow.
Target: Ste12 (UniProt P13574)
Assay: PBM E-score (8-mer binding enrichment) (E-score (-0.5 to 0.5)); higher = stronger / more preferred TF binding; most listed sequences are background and not binding sites
Conditions: protein concentration: 200 nM; construct: GST-DNA-binding domain
Method in brief: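 Yeast transcription factors carrying a GST tag, as full-length proteins or DNA-binding domains, were produced by PURExpress in vitro transcription/translation. About 100-200 nM protein was applied to universal all-10-mer Agilent arrays, double-stranded by primer extension on fresh or once-stripped slides. Bound protein was detected with fluorescent anti-GST, and scans were normalised with masliner. The Universal PBM Analysis Suite gave each ungapped eight-base word, pooled with its reverse complement, an E-score, a modified Wilcoxon-Mann-Whitney statistic.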

Sequence | PBM E-score
ATGAGGAC | -0.0838
GCCATCGC | -0.196
CGTTTGCC | 0.0523
AGATAATG | 0.063
CTCATAGA | -0.0578
TATACTGA | 0.174
ACAAAGTG | 0.0815
ACAATCGA | 0.0393
ACGCGCGG | 0.158
TCGCCCAA | -0.0371
ATGAATAC | 0.0977
CAACCGGG | 0.0313
TGATTCAA | 0.179
CACATGGA | -0.221
TGTGATAA | 0.11
AAGTGCAA | -0.0141
CCCGGCAA | 0.0783
GCCCTGCC | -0.0475
AGGTGAGG | 0.0169
CTGAACGC | -0.132
CAATACGC | -0.142
CCGGCCGG | 0.248
AGAAGTCC | -0.247
GGTGACAA | 0.0614
TTCCTAAA | 0.0474

Sequence | PBM E-score
GCATCACC | -0.0706
CTGAAGTC | -0.0409
ACTCTAAA | 0.125
CTACCGCA | -0.21
AAGAGGTG | -0.0242
CATAATCG | 0.196
ATTAAGTC | -0.0618
AGGTATTA | 0.0192
ACTACTAG | 0.0458
TCGGCGAA | 0.0352
GCTTGCCA | -0.196
AGCGCGCT | 0.00199
CACCCTTA | 0.00998
ACGTCAAA | 0.0313
GTATGATA | 0.0429
GCCAGGCA | -0.0592
ACGCTAGG | -0.137
CTTTCGTA | 0.142
GACGTACC | -0.167
AGCCTAAT | -0.0402
AATATTAA | 0.327
ATATATGA | 0.188
AACAACGC | 0.111
CGGTCCAG | -0.256
AGTGCTGA | 0.0366

Sequence | PBM E-score
ACGGCGGC | -0.0851
CCCTTACC | 0.0255
ACGAACCG | -0.0535
AGCTCTTG | -0.0968
ATTAAAGG | 0.133
ATTTCCAC | 0.188
GAAACTTC | 0.189
ATCCGTCC | -0.0284
CGGGTACC | -0.148
ATATCCAT | 0.0604
AATTGGTC | 0.123
AGATCTAT | -0.0216
CACGTCAA | -0.217
CAGGAACC | -0.241
CTCTTCCC | -0.0727
AGCGTGAC | -0.001
ACCCAAGT | -0.00847
AACTAGTC | -0.0411
ATACTGGG | -0.0204
AACGATCG | 0.0136
AGGAGGAA | -0.0888
CGCTGGTA | -0.118
AACCACCT | 0.125
AAGCTTGG | -0.136
ACGCCATG | -0.167

Sequence | PBM E-score
CCTTAGGA | -0.114
TATTTCAA | 0.282
CAACAGGC | -0.109
AATCCAGT | 0.00589
ATTGTATA | 0.0784
TGGCAACA | -0.0715
CGGAGGAA | -0.167
AGGTCTTG | -0.0986
AAGGGGGA | -0.247
TAGCTCAA | -0.104
AAAGTTGC | -0.12
TACCGTCA | 0.0353
CCTGGCGA | -0.00458
AGGGCCCC | -0.278
TGAGCGCA | -0.25
CGCCCAGA | -0.0783
ACCGTTTG | -0.0273
AGGGGTCC | -0.215
ACCGGTGC | -0.0741
AATAGTTC | -0.0574
AATAACTC | 0.12
GGAACGTA | -0.0226
GCATTGCC | -0.194
CGCGGAAG | 0.116
GGATCCAA | -0.0177

Sequence | PBM E-score
CCGCTAAA | -0.197
CCCAGCCC | -0.17
AAGTATCG | -0.0231
TACGCGAA | 0.0572
CATGATGA | 0.0449
AGCATGTG | -0.139
AAGGCGGT | -0.0505
AGGCTAGG | -0.0905
TTGCACAA | -0.127
CGATCATC | -0.075
TATAGGCA | -0.179
TAGTTGAA | 0.145
AGACTCCA | -0.268
AAGTACCA | -0.12
TCACGCCA | -0.172
GTCCAAGA | -0.191
AATAATAA | 0.308
CACGATAC | -0.0561
GCGTTTTA | 0.352
CAGCCGAG | -0.0685
CCATTTCC | 0.037
AATTAAAT | 0.156
GGCTTAAA | 0.253
GCGAGCGC | -0.0453
GCACTCAC | -0.0309

Sequence | PBM E-score
ATCCTTCA | 0.0985
GACTTCAC | -0.16
CATTGGGC | -0.255
AAAACAAT | 0.225
CGTCCACC | -0.242
ATTGCTTG | -0.0516
GGTAAGGA | -0.108
CTCTCAAA | 0.0271
AAGCTGGT | -0.051
TGAAGCCA | -0.03
ATAACAGC | -0.0504
CCACGTTC | -0.0942
GGAGAACC | -0.0942
AGGCGCGG | -0.0442
TAAACTTA | 0.168
CTGTTTCA | 0.484
ATGGGAGA | -0.122
GTGCCAAC | 0.0106
AGATCCAT | -0.0971
CAGAGCGC | -0.15
AAAATCGT | 0.122
AGCTTTGG | -0.0819
AAACAGAT | 0.246
ACGTAATG | -0.0443
GTTCGACA | 0.0212

Sequence | PBM E-score
CAATATCC | 0.141
CCGGCTCC | -0.0246
AGGGCCAC | -0.202
AGTGCGGA | 0.0511
CTGTCTCA | 0.158
GCGAAGCC | -0.321
CCGAAAAG | 0.235
AGGGTCCC | -0.149
ATCCCTGA | -0.0412
CGCTCATC | -0.0341
GCGGAAGA | 0.0165
GCACGCTA | -0.021
CTTGGTCA | 0.0699
AGCAGCTC | -0.242
ATGGGTCC | -0.0701
AGGGCTAC | -0.121
AGCGGGAG | -0.133
ATATCCCC | 0.174
GGGTCACC | -0.13
CAGATCGC | 0.0918
GGATTTCA | 0.158
ATTTTAGC | 0.0142
AGGTCAGG | -0.104
ATCTGGAC | -0.172
TGTTTAAA | 0.26

Sequence | PBM E-score
GCGGCCCC | -0.0464
TATGGGCA | -0.0261
CGCGTGTC | -0.0421
GAACAAGC | -0.141
ATCATTAG | 0.0954
GAAAAGCC | -0.0418
ATCATACA | 0.142
ACCTGGTA | -0.0624
ACAGCTAA | -0.111
ATTAGGTG | 0.0184
ACGCGAAA | 0.0663
CTCGATCA | 0.114
GACTCACA | -0.201
CTGAACAG | -0.135
AGTTGATA | 0.0162
AGTCACTC | -0.0694
CCCGCTGC | -0.167
CGCGCTGC | -0.0222
CTGGAACA | 0.162
GCGCTGCA | 0.03
GTCCCGCA | -0.123
CAGATAAG | 0.128
ACAGGGCA | -0.0612
GTCTTATA | 0.0618
GGTATTCA | 0.0784

Sequence | PBM E-score
CACCTGTC | 0.0774
AGCACTCC | -0.00087
GCCGGCTA | 0.00039
CGGTCACG | -0.0528
AGCAAACC | 0.194
ACGGTCCC | -0.172
ATGGGATC | -0.0396
CCCCACCA | 0.102
GACGCTAA | -0.296
GCACTGCA | -0.0478
AGAGTCGA | -0.0226
CTGACGAA | 0.107
AAAACTGT | 0.222
AAACTTAC | 0.0965
AGCTAAAC | -0.0259
CGTCCTCC | -0.0384
CGTTATGA | 0.00143
ATCTAGTC | -0.0479
AGATAGCT | -0.166
